# Measurements reported in PubChem BioAssay AID1345082 (National Center for Advancing Translational Sciences (NCATS), 2018).
# Screen size: about 94,000 compounds; about 4,000 (4.3%) were called active. This list was built around the results that the source calls inconclusive (neither active nor inactive); the mix of calls is not that of the screen. The call rests on the fitted dose curve; in most records, active means well fitted inhibition curve with a large enough effect; inconclusive means small, poorly fitted or top-dose-only effect; inactive means no such curve, though single readings can be large or run the other way. Potencies beside an inconclusive call are fits to weak or partial responses and may not hold up.
# Assay: Cytotoxic Profiling in NIH 3T3 Cell Line of Diverse Libraries Using Quantitative High-Throughput Screening; further: nearly all actives have a fitted effect of over 55% in size
# Details: NIH 3T3 viability, CellTiter-Glo ATP luminescence, 48-72 h; activity change, negative = cytotoxicity: at 96.7 µM (top of the series); series mostly up to 96.7 µM
# In short: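 Cells were seeded at 400 per well, treated with pin-transferred compound, and kept 48 or 72 hr at 37 °C before CellTiter-Glo addition and luminescence imaging of cellular ATP.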
# On the % scale 0 is the no-effect control and ±100 the full control effect; potency means the concentration at half of the fitted maximal effect; tags describe the fitted curve by direction and shape.
SMILES,Potency,"activity change, negative = cytotoxicity",outcome
Cc1ccc(-c2cc3c(ccn3C)c(C(=O)NCCc3cnc[nH]3)n2)cn1,active: 28.2 µM,,
O=C(c1nnc(CNc2ccccn2)n1-c1cccnc1)N1CCC[C@@H]1C(c1ccccc1)c1ccccc1,"inconclusive: 70.8 µM [inhibitor, single point]",,
CCOCCN1C(=O)COC[C@@H]1[C@H](O)c1ccc(NC(=O)c2ccnc(Cl)c2)cc1,"inconclusive: 89.1 µM [inhibitor, partial curve]",,
CCOC(=O)C1(Cc2ccccc2C(F)(F)F)CCN(Cc2ccccn2)CC1,"inconclusive: 63.1 µM [inhibitor, partial curve, poor fit]",,
CN(C)c1nc2c(c(=O)[nH]1)CCN(Cc1ccccc1Br)CC2,,inactive: -6.3%,
Cc1nn(-c2ccccc2)c2c1C(C(C)C)N(C1CCN([S+](=O)([O-])c3c(C)noc3C)CC1)C2=O (stereo not drawn),,inactive: -16.2%,
COc1ccc(-c2cc(N3CCCC(NC(=O)c4cnccn4)C3)n[nH]2)cc1 (stereo not drawn),"inconclusive: 50.1 µM [inhibitor, partial curve, poor fit]",,
CC1(C(=O)NCC2CC2)CCCc2cnc(Nc3ccccc3)nc21 (stereo not drawn),"inconclusive: 100 µM [inhibitor, partial curve]",,
COc1cc(-c2ccc(-c3nc(CC(C)C)no3)cn2)cc(OC)c1OC,"inconclusive: 79.4 µM [inhibitor, partial curve]",,
CC(C)N1C[C@H](Oc2ccccc2)[C@@H]1C1CCN(C(=O)c2ccccn2)CC1,,inactive: -27.4%,
CN(Cc1cccn1C)[S+](=O)([O-])c1cccs1,"inconclusive: 89.1 µM [inhibitor, partial curve, poor fit]",,
Cc1ccccc1OCc1nc(C2CN(C(=O)C(C)c3ccccc3)C2)no1 (stereo not drawn),"inconclusive: 50.1 µM [inhibitor, single point]",,
Cc1noc(C)c1-c1cnc(Nc2cccc(C(F)(F)F)c2)c2c1CCO2,"inconclusive: 56.2 µM [inhibitor, partial curve, poor fit]",,
CNC(=O)c1cc(C2CC2)nc2c1c(C1CCCN(C(=O)c3cccnc3)C1)nn2C (stereo not drawn),,inactive: -11.8%,
O=C(Nc1ccc([C@@H](O)[C@H]2COCC(=O)N2Cc2ccc(C(F)(F)F)cc2)cc1)c1ccco1,"inconclusive: 89.1 µM [inhibitor, partial curve, poor fit]",,
CC(NC1CCC2(CCNCC2)CC1)c1nc(-c2ccccn2)no1 (stereo not drawn),,inactive: -2.23%,
COC(=O)CCCNC(=O)[C@@]1(O)C[C@@H](O)[C@H](O)[C@@H](NC(=O)Nc2ccc(C)cc2)C1,,inactive: -12.8% [at 174 µM],
Cc1ccc(CN(C)C(=O)c2coc(COc3ccc4c(c3)OCO4)n2)o1,"inconclusive: 35.5 µM [inhibitor, partial curve]",,
Cc1cc2nc3n(c(=O)c2n1CC(=O)Nc1ccc(F)cc1)CCC3,,inactive: -6.28%,
Cc1ccc(CN2CCc3nc(C(C)C)nc(-c4ccc(O)cc4)c3CC2)cc1,"inconclusive: 56.2 µM [inhibitor, partial curve, poor fit]",,
COc1cccc(Nc2ccnc(N3CCN(C(=O)C4CC4)CC3)n2)c1,"inconclusive: 28.2 µM [inhibitor, full curve]",,

SMILES,Potency,"activity change, negative = cytotoxicity",outcome
COc1ccc(Nc2ccnc(N3CCC(NC(=O)c4ccc(Cl)nc4)CC3)n2)cc1,"inconclusive: 50.1 µM [inhibitor, partial curve, poor fit]",,
COc1ccc(C(=O)Nc2ccc([C@H]3OCC(=O)N(C(C)C)[C@@H]3CO)cc2)cc1,"inconclusive: 56.2 µM [inhibitor, partial curve, poor fit]",,
CN(C)CCN(C)[C@@H]1[C@H](O)[C@H](CO)O[C@@H]1CNC(=O)Nc1ccc(OC(F)(F)F)cc1,,inactive: -5.28%,
COc1ccc(CCNC(=O)c2noc(-c3ccccc3F)n2)cc1OC,"inconclusive: 44.7 µM [inhibitor, partial curve, poor fit]",,
CCN(CC)C(=O)CCc1c(C)nn(-c2ccccc2)c1Oc1cccc(F)c1,"inconclusive: 44.7 µM [inhibitor, partial curve, poor fit]",,
CN1CCCC2(C1)CN(Cc1cccnc1)c1ccc(C(=O)NCc3cccs3)cc12 (stereo not drawn),"inconclusive: 89.1 µM [inhibitor, partial curve, poor fit]",,
Cc1ncccc1C(=O)N1CC(Oc2ccc(-c3nc(-c4ccccc4)no3)cc2)C1,"inconclusive: 22.4 µM [inhibitor, full curve]",,
COc1ccc(C(=O)N[C@H](Cc2ccccn2)C2CC(O)C2)cc1F (stereo partly drawn),,,inactive
COc1ccc(C(=O)Nc2ccc([C@@H](O)[C@H]3COCC(=O)N3CC3CCCCC3)cc2)cc1,"inconclusive: 56.2 µM [inhibitor, partial curve, poor fit]",,
CCOc1cccc(CN2CC(c3nc(Cc4cccnc4)no3)C2)c1,"inconclusive: 15.8 µM [inhibitor, full curve, poor fit]",,
Cc1ccccc1NC(=O)Cn1c(=O)n(-c2ccccc2)c(=O)c2c1cc(C)n2C,,,inactive
COc1ccc(CNC(=O)C2(N3C[C@@H](C)O[C@@H](C)C3)Cc3ccccc3C2)cc1,"inconclusive: 8.91 µM [inhibitor, full curve, poor fit]",,
CCC(C(=O)Nc1ccc2c(c1)CN(Cc1cc(F)cc(F)c1)C(=O)CO2)c1ccccc1 (stereo not drawn),"inconclusive: 25.1 µM [inhibitor, full curve, poor fit]",,
COCCCNc1ncnc2sc3c(c12)CCNC3,"inconclusive: 50.1 µM [inhibitor, partial curve, poor fit]",,
Cc1ccc(CCNC(=O)C2CCN(C(=O)c3nnn4c3COC(c3ccc(C)cc3)C4)CC2)cc1 (stereo not drawn),,inactive: -11.4%,
O=C(NCC1CCCCC1)c1cc(-c2ccc(F)cc2)c2nncn2n1,active: 6.31 µM,,
CS(=O)(=O)Nc1ccc(C2(C(=O)N3CCN(c4ccccn4)CC3)CCCCC2)cc1,"inconclusive: 17.8 µM [inhibitor, full curve, poor fit]",,
N#Cc1ccc(C(=O)N2CCOC[C@H](Oc3ccc(C(F)(F)F)cc3)C2)cc1,"inconclusive: 100 µM [inhibitor, partial curve]",,
CCCN(CCC)Cc1ccc(C(=O)NCc2c(C)noc2C)cc1,"inconclusive: 50.1 µM [inhibitor, partial curve, poor fit]",,
O=C(c1ccccc1-c1ccccc1F)N(Cc1cccnc1)C1CC1,,inactive: -21.5%,
CN(C)C(=O)N1CCCC(c2nn(-c3ccccn3)c(=O)[nH]2)C1 (stereo not drawn),,inactive: 4.33% [at 138 µM],

SMILES,Potency,"activity change, negative = cytotoxicity",outcome
CCOc1ccccc1C(=O)N1CCCN(c2cc(-c3ccc(Cl)cc3)[nH]n2)CC1,"inconclusive: 31.6 µM [inhibitor, partial curve]",,
O=C([C@H]1CCC[C@@H](O)C1)N1CCN(c2ccc3nccn3n2)CC1,,inactive: -1.76%,
CC1=C[C@@H](CNC(=O)c2ccnc(Cl)c2)[C@H](C(C)C)C[C@H]1Cc1nc2ccc(C)cc2[nH]1,active: 17.8 µM,,
COCCc1noc([C@@H]2CC(F)(F)CN2C(=O)c2ccccn2)n1,,inactive: -5.1%,
COCc1ccc2c(c1)c(OC(C)(C)C(=O)NCc1cnccn1)nn2Cc1cccc(OC)c1,"inconclusive: 44.7 µM [inhibitor, partial curve, poor fit]",,
CN1CCC2(C1)CN(CC1CC1)c1ccc(C(=O)NCc3cccs3)cc12 (stereo not drawn),"inconclusive: 56.2 µM [inhibitor, partial curve, poor fit]",,
O=c1c2nc(-c3cccnc3)ccc2ncn1-c1ccc(F)cc1F,"inconclusive: 79.4 µM [inhibitor, partial curve, poor fit]",,
O=C(CCC1CCN(C(=O)c2ccccc2)CC1)Nc1ccc(F)c(F)c1,"inconclusive: 39.8 µM [inhibitor, partial curve]",,
COc1ccc(-c2noc([C@@H]3C[C@@H](O)CN3Cc3ccccc3)n2)cc1,"inconclusive: 112 µM [inhibitor, partial curve, poor fit]",,
Cc1nn(-c2ccc(F)cc2)c(C)c1[C@@H]1C=C[C@@H](NC(=O)c2ccco2)C1,"inconclusive: 100 µM [inhibitor, partial curve, poor fit]",,
CN(Cc1cccnc1)c1nc2c(c(=O)[nH]1)CCN(Cc1cccc(Cl)c1F)CC2,"inconclusive: 12.6 µM [inhibitor, full curve, poor fit]",,
O=C1N(Cc2cccc(F)c2F)CCCC1(O)CNCc1ccccc1 (stereo not drawn),"inconclusive: 44.7 µM [inhibitor, partial curve]",,
COc1ccc(C(=O)N2CCC3(CC2)N(C)C(=O)CS3(=O)=O)cc1F,,inactive: -1.19%,
CO[C@H]1[C@H](NC(=O)c2cc3ccccc3n2C)c2ccccc2C12CCNCC2,active: 22.4 µM,,
Cc1noc2c(Nc3ccc(C(N)=O)cc3)cc(-c3ccc(F)cc3)nc12,"inconclusive: 3.98 µM [inhibitor, full curve, poor fit]",,
COc1ccccc1-c1[nH]nc2ncc(CN(C)Cc3ccccc3)nc12,"inconclusive: 63.1 µM [inhibitor, partial curve, poor fit]",,
COCCC(=O)N1CCCC(N2CCN(c3cccc(C(F)(F)F)c3)CC2)C1 (stereo not drawn),,inactive: -18.1%,
COc1ccc(C)cc1NC(=O)N1CCCC1c1nncn1C1CCCC1 (stereo not drawn),active: 31.6 µM,,
O=C(N1CCC(Cc2ccccc2)CC1)C1(c2ccc(Cl)cc2)CCOCC1,"inconclusive: 50.1 µM [inhibitor, partial curve, poor fit]",,
c1ccc(C2=NOC3(CCCN(Cc4cccc5ccccc45)C3)C2)nc1 (stereo not drawn),"inconclusive: 70.8 µM [inhibitor, single point]",,
O=C(c1ccccc1)N1CCC(C(=O)N2CCC(c3nc4ccncc4[nH]3)C2)CC1 (stereo not drawn),,inactive: -4.57%,
